Certain results were filed several times, with different values. The other results are left out here. An entry can have further records. Some entries list several cross-links; each record is another pair of residues.

Sequence of PDCD5 (O14737 whole entry): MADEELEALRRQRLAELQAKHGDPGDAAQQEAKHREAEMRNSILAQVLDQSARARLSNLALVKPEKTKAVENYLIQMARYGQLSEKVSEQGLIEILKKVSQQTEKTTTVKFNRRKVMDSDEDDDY
Sequence of CCT6A (P40227 whole entry): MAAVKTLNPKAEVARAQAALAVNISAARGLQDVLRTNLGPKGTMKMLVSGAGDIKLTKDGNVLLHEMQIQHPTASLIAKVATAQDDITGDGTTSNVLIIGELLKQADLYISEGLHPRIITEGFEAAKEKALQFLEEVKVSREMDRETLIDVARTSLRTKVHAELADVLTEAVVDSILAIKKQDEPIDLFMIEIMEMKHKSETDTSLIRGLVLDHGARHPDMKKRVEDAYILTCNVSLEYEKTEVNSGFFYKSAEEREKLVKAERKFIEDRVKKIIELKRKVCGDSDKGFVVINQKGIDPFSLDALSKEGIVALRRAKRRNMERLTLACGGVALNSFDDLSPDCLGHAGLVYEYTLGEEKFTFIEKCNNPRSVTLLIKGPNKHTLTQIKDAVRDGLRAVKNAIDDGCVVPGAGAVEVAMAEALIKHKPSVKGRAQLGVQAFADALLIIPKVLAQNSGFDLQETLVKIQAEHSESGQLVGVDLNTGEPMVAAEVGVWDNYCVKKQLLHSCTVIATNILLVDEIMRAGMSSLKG
Sequence of TCP1 (P17987 whole entry): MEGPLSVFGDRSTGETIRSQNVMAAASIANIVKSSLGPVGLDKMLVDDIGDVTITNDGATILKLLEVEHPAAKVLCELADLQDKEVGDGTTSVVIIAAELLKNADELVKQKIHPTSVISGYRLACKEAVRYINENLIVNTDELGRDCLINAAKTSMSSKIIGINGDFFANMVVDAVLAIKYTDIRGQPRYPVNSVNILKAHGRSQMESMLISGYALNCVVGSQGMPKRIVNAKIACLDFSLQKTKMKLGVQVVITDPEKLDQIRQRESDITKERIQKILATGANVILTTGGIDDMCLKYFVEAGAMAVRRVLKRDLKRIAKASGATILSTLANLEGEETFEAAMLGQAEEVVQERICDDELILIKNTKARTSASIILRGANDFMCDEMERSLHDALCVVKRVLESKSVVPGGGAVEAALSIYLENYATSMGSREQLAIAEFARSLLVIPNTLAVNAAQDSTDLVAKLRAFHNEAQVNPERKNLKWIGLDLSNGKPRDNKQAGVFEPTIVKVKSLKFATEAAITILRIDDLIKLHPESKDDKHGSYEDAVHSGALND

The experiment concerns the target CCT3 (UniProt P49368). The experiment is described as follows: cross-linking mass spectrometry. The note with it: TSTO, in cells.
Sequence of UniProt P49368 (P49368 whole entry): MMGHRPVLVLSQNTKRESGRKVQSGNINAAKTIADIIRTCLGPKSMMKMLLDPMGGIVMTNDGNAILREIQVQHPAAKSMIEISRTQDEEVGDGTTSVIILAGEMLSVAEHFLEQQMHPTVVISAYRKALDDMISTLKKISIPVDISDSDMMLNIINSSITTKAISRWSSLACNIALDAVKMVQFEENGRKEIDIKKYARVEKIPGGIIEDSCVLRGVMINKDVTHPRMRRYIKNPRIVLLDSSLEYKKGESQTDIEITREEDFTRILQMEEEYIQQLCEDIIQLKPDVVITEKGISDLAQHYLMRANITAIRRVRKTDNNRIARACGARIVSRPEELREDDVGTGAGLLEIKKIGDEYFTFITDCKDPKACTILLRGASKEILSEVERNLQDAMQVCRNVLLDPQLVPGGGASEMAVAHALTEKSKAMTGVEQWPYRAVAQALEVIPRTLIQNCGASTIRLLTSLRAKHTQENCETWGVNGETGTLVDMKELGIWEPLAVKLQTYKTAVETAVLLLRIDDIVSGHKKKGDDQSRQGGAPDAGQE
In the case of CCT6A, P40227, the cross-linked residues result was “K10 - K15 and K10 - K21 and K10 - K78 and K530 - K15 and K530 - K78”.

Regarding PDCD5, O14737, the cross-linked residues result is “K66 - K527 and K66 - K529 and K97 - K529 and K98 - K527 and K98 - K529 and K105 - K527 and K105 - K529”.

In the case of TCP1, P17987, the cross-linked residues entry is “K199 - K138 and K532 - K527 and K532 - K529”.

These data come from PMC12215968.
